# Values joined by “and” are separate entries in the source; they are usually repeats but may differ in a detail not shown here. Identical values can stand only once. Screen size: about 420,000 compounds; about 64,000 (15%) were called active. The inconclusive results got no clear call from the source; some entries with a clear call stand among them for comparison. Calls come from the whole dose curve; as a rule, active = well fitted inhibition curve with a large enough effect; inconclusive = small, poorly fitted or top-dose-only effect; inactive = flat fitted curve, though single readings scatter. Potencies of inconclusive entries are doubtful fits and often do not repeat.
# Assay: qHTS for Inhibitors of human tyrosyl-DNA phosphodiesterase 1 (TDP1): qHTS in cells in absence of CPT; note: nearly all actives have a fitted effect of over 55% in size
# Conditions: DT40 Tdp1-/- hTDP1 cells, no CPT, ATP luminescence, 48 h; activity change, negative = growth inhibition: at 46.2 µM (top of the series) unless noted
# Summary of the method: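 Readout: luminescence from CellTiter-Glo after 30 min in the dark at RT. Cells: DT40 Tdp1-/- with stable hTDP1, 400/well. Exposure: compounds alone, ≥48 hr, 37 °C.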
# % is set by controls: 0 for no effect and ±100 for the full control effect; potency is the fitted concentration of half-maximal effect; tags give direction and shape of the fitted curve.
Structure (SMILES),Potency,"activity change, negative = growth inhibition"
CCOc1ccc(S(=O)(=O)Nc2ccc3oc(C)c(C(=O)OCCOC)c3c2)cc1,active: 1.46 µM,–
O=C(Nc1ccccc1)Nc1nnc(-c2cccs2)s1,"inconclusive: 23.1 µM [inhibitor, single point]",–
C#CCNC(=O)C1=C[C@H](c2ccc3c(c2)OCO3)C[C@H](OCc2ccc(CO)cc2)O1,"inconclusive: 16.4 µM [inhibitor, single point]",–
Cc1ccc(/C=C2/Sc3ccccc3N(CC(=O)NCCCOC(C)C)C2=O)cc1,"inconclusive: 29.1 µM [inhibitor, single point]",–
CC(=O)c1ccc(Nc2nc(-c3cccnc3)cs2)cc1,"inconclusive: 0.92 µM [inhibitor, full curve, poor fit]",–
Cc1nn(C)c(C)c1CN(C)C(=O)c1cc2nc(-c3ccco3)cc(C(F)(F)F)n2n1,"inconclusive: 29.1 µM [inhibitor, partial curve]",–
Cc1ccnc(NC(=O)/C=C/c2cccs2)c1,active: 11.6 µM,–
COc1ccc(COC(=O)CNC(=O)C2CCCCC2)cc1F,inactive,–
CCCCn1nnnc1C(c1ccccc1)N1CCN(c2ccccc2)CC1 (stereo unspecified),"inconclusive: 18.4 µM [inhibitor, single point]",–
O=C(c1ccc(Br)s1)N1CCN(C/C=C/c2ccccc2)CC1,"inconclusive: 23.1 µM [inhibitor, single point]",–
CCCn1c(=O)c2sccc2n2c(CCCC(=O)N3CCN(c4ccccc4)CC3)nnc12,active: 16.4 µM,–
O=C(Nc1ccccc1Oc1ccccc1)c1cc([N+](=O)[O-])ccc1Cl,"inconclusive: 29.1 µM [inhibitor, single point]",–
O=C(NCc1ccc(F)cc1)C1CCCN(c2nc3ccsc3c(=O)s2)C1 (stereo unspecified),inactive,–
COc1ccc(CCNC(=O)Cn2nnc(-c3ccc(C(F)(F)F)cc3)n2)cc1OC,inactive,–
CN(C)C1=NC[C@H](Cc2ccccc2)N1CCCCc1ccccc1,active: 20.6 µM,–
O=C(Cc1ccccc1)NCC(=O)OCc1ccc([N+](=O)[O-])cc1,inactive,–
CCOC(=O)c1ccc(NC(=O)Nc2ccc3c(c2)OCCO3)cc1,"inconclusive: 29.1 µM [inhibitor, single point]",–
COc1ccccc1N(Cc1ccccc1)S(=O)(=O)c1cccc(C(=O)NCC2CCCO2)c1 (stereo unspecified),"inconclusive: 29.1 µM [inhibitor, single point]",–
Cc1ccc(NS(=O)(=O)c2ccc(C)c(NC(=O)c3ccc(S(=O)(=O)N4CCCCCC4)cc3)c2)c(C)c1,active: 10.3 µM,–
COc1cc2oc(=O)cc(CN3CCCCC3)c2cc1Cl,inactive,–
CCOC(=O)c1c(NC(=O)c2ccoc2C)sc(C(=O)N(C)C)c1C,active: 23.1 µM,–
Cc1cc(=O)oc2cc(OCC(=O)Nc3c(C)n(C)n(-c4ccccc4)c3=O)c(Cl)cc12,inactive,–
O=C(CSc1nc2nn(-c3ccccc3)c(=O)c-2c2n1CCCCC2)c1ccc(O)c(O)c1,"inconclusive: 20.6 µM [inhibitor, single point]",–
CSCCC(NS(=O)(=O)c1ccc(Cl)cc1)C(=O)OCC(=O)NC1CCCCC1 (stereo unspecified),inactive,–

Structure (SMILES),Potency,"activity change, negative = growth inhibition"
O=C(CN1CCc2ccccc2C1)Nc1cc(S(=O)(=O)N2CCOCC2)ccc1N1CCCC1,"inconclusive: 29.1 µM [inhibitor, single point]",–
C/C(=N\n1c(C)nc2ccccc2c1=O)c1ccc(N)cc1,active: 18.4 µM,–
O=C(COC(=O)/C=C/c1cccc(C(F)(F)F)c1)NCCN1C(=O)CSC1=O,"inconclusive: 6.51 µM [inhibitor, single point]",–
COc1ccc(CC(=O)N(C)CC(=O)Nc2ccc(F)cc2)cc1S(=O)(=O)N1CCOCC1,inactive,–
Clc1ccc(-c2csc3ncnc(NCCN4CCOCC4)c23)cc1,active: 13 µM,–
COCCn1c(SCC(=O)Nc2ccc(F)c(Cl)c2)nc2c(oc3ccccc32)c1=O,"inconclusive: 9.2 µM [inhibitor, partial curve]",–
CN(Cc1ccccc1)C(=O)COc1ccc2ccccc2c1,inactive,–
C/C(=N\NC(=O)CNC(=O)c1cccs1)c1ccc(Cl)c(Cl)c1,"inconclusive: 20.6 µM [inhibitor, single point]",–
CCn1ncc2c1C(=O)NC1c3ccccc3C(=O)N21 (stereo unspecified),"inconclusive: 9.2 µM [inhibitor, partial curve]",–
CCCn1c(CCC(=O)O)ccc1-c1ccccc1,"inconclusive: 29.1 µM [inhibitor, single point]",–
O=C(CC1(O)C(=O)Nc2ccccc21)c1ccc2c(c1)OCO2 (stereo unspecified),inactive,–
C[C@@H](N)C1CCC(C(=O)Nc2ccncc2)CC1 (stereo partly specified),"inconclusive: 8.2 µM [inhibitor, partial curve] and inconclusive: 14.1 µM [inhibitor, partial curve]",–
COCCCNCCOCCOc1c(OC)cccc1OC,"inconclusive: 9.2 µM [inhibitor, partial curve]",–
CCC1Oc2ccc(C)cc2N(CC(=O)N(Cc2ccncc2)Cc2ccco2)C1=O (stereo unspecified),"inconclusive: 13 µM [inhibitor, partial curve]",–
CN(C)C1=NC[C@H](Cc2ccccc2)N1CC1CCCCC1,active: 11.6 µM,–
COCCCn1c2nc3ccccc3nc2c2c(=O)n(Cc3ccc(Cl)cc3)cnc21,active: 18.4 µM,–
Cc1nc2ccn(Cc3cccnc3)c(=O)c2cc1C(=O)Nc1ccc(OC(F)(F)F)cc1,"inconclusive: 29.1 µM [inhibitor, single point]",–
COc1cc(/C=C/c2ccc(O)cc2)cc(OC)c1,"inconclusive: 18.4 µM [inhibitor, single point]",–
Cc1ccc(C(=O)Nc2ccccc2Oc2ccccc2)cc1[N+](=O)[O-],"inconclusive: 25.1 µM [inhibitor, single point]",–
CN(C)c1nc(-c2cccc(C#N)c2)nc2ccccc12,"inconclusive: 29.1 µM [inhibitor, single point]",–
COC(C/C=C/[C@@H](O)COCc1ccccc1)OC,inactive,–
COc1ccc(C)cc1NC(=O)C1CCC(CNc2c(N3CCOCC3)c(=O)c2=O)CC1 (stereo unspecified),inactive,–
Cc1cccc(N2CCN(C(=O)C(Cc3ccccc3)n3cccc3)CC2)c1C (stereo unspecified),active: 16.4 µM,–
CN(Cc1ccccc1)C(=O)c1cccc(NC(=O)Cc2ccc(NC(=O)C3CCCN(C(=O)C4CCCCC4)C3)cc2)c1 (stereo unspecified),"inconclusive: 18.4 µM [inhibitor, single point]",–

Structure (SMILES),Potency,"activity change, negative = growth inhibition"
Nc1[nH]c(=S)nc2nc(-c3ccccc3)c(-c3ccccc3)nc12,"inconclusive: 23.1 µM [inhibitor, single point]",–
Cc1cc(C(F)F)nn1CC(=O)NC1CCCC1,inactive,–
Clc1ccc(COn2nnc3ccccc32)c(Cl)c1,"inconclusive: 20.6 µM [inhibitor, single point]",–
CN(C(=O)c1cccc(S(=O)(=O)NCc2ccccc2)c1)C1CCCCC1,"inconclusive: 20.6 µM [inhibitor, single point]",–
COC(=O)c1cc(=O)n(Cc2ccc(OC)c(OC)c2)c(=Nc2ccc(F)cc2)s1,active: 14.6 µM,–
CC(C)NS(=O)(=O)c1ccc(NC(=O)C(C)OC(=O)CCCOc2ccccc2)cc1 (stereo unspecified),"inconclusive: 11.6 µM [inhibitor, partial curve]",–
Cc1cc(Cl)ccc1OCC(=O)Nc1cccnc1,–,inconclusive: -32.3% [inhibitor]
CCCN1CC=C2C(C#N)=C(N)C(C#N)(C#N)C(c3cc(OC)ccc3OC)C2C1 (stereo unspecified),inactive,–
CCN(CC)c1ccc(/C=N/Nc2nc(C)cc(C)n2)cc1,active: 18.4 µM,–
CNC(=O)Cn1ncc2c3ccccc3n(C)c2c1=O,inactive,–
O=C(NCC1Cc2cccc(-c3ncccn3)c2O1)c1cccc(-c2ccccc2F)c1 (stereo unspecified),"inconclusive: 29.1 µM [inhibitor, single point]",–
O=c1c2c(-c3ccccc3)csc2nc2c3ccccc3c(NCCN3CCOCC3)nn12,active: 5.17 µM,–
O=C(COc1ccc(Br)cc1Cl)NC(=O)NC1CCCC1,"inconclusive: 29.1 µM [inhibitor, single point]",–
CC(C)(C)C(=O)/C=c1\[nH]c(=O)/c(=C\c2ccc(C#N)cc2)s1,"inconclusive: 18.4 µM [inhibitor, single point]",–
Cc1ccc(C)c(Cn2c(C(C)NC(=O)c3ccc(F)cc3)nc3ccccc32)c1 (stereo unspecified),–,inconclusive: -33.2% [inhibitor]
Cc1cc(C)c(S(=O)(=O)c2cccc(Cl)c2)c(Cl)n1,"inconclusive: 0.0164 µM [inhibitor, full curve, poor fit]",–
COc1c(C)cc(C(=O)C2CCCN(S(=O)(=O)N(C)C)C2)cc1C (stereo unspecified),active: 13 µM,–
C=CCN1C(=O)C(Cc2cccc(Cl)c2)S/C1=N/N=C/c1ccco1 (stereo unspecified),inactive,–
CC(C)CNc1ncnc2c1ncn2[C@H]1CN(Cc2cccc3ccccc23)C[C@@H](CO)O1,"inconclusive: 23.1 µM [inhibitor, single point]",–
COc1cc(NC(=O)Cn2cnc(S(=O)(=O)N3CCc4ccccc43)c2)cc(OC)c1OC,"inconclusive: 13 µM [inhibitor, partial curve]",–
CCOc1cccc(-c2nn3c(-c4cc(C)[nH]n4)nnc3s2)c1,"inconclusive: 14.1 µM [inhibitor, partial curve, poor fit] and inconclusive: 20.6 µM [inhibitor, single point]",–
O=C(CC(=O)N/N=C\c1cccc(Cl)c1Cl)NCc1ccccc1,"inconclusive: 23.1 µM [inhibitor, single point]",–
CCOc1ccc(-c2cccc(NC(=O)c3cccs3)c2)nn1,"inconclusive: 18.4 µM [inhibitor, single point]",–
